Data reported in the RNAGym collection of RNA variant scans (doi:10.7554/elife.90254).
Read counts are not given, so values of variants with three or more changes are uncertain.

B1: LINE1-mini (parent)
chain: GGCAGAGCUCAACACAGCGUGGCAAAGUGGCUGUGGCUAGACUGCC

Variants of: B1
Assay: self-cleavage, relative activity (ratio to wild type); higher = more cleavage; in vitro, sequencing; the parent is a self-cleaving ribozyme

| Variant | self-cleavage |
| --- | --- |
| A6U G7C C15A G27A | 0.09 |
| U9A A12C A16G | 0.01 |
| C13U U34C G40C | 0.01 |
| G17A U38G G44A | 0.01 |
| C3U C15A G17A | 0.05 |
| C10U G17A G22C | 0.02 |
| C3U C8G A16U | 0.09 |
| G2C G29A C45U | 0.15 |
| C8G G17A G27A G40U | 0.03 |
| A12C A16C C46A | 0.01 |
| G1U C15U G29U | 0.5 |
| G2U U9A A25U | 0.01 |
| G1A U9G G30U G35A U43A | 0 |
| U9A G22A U28G | 0.01 |
| A24G U28A C37U | 0.07 |
| G1A A16C G36A G40A | 0.04 |
| G1A C10A A11C | 0.13 |
| A14C C23A A41U | 0.12 |
| A4C G17A G19U C31A A41U | 0.03 |
| G2A A14C G29C G36A G40U | 0.16 |
| G29U G30C C31A G40U | 0.04 |
| G1U C3U C8U G19U | 0.68 |
| U9G A24G U32C | 0.04 |
| C10A A12U C31A | 0.03 |

| Variant | self-cleavage |
| --- | --- |
| C10G A12C U20G | 0.01 |
| A6G G7A U20C U38G | 0.01 |
| C8U U9C G17A C18G G29U U34C G35A | 0.05 |
| G2A G5A A11C A16G | 0.08 |
| A6G G7C C31U A41U | 0.06 |
| C3A A4C G27A U34C A41C | 0.07 |
| G1U G19C U20A U32A A39G | 0.03 |
| G22U C23A A24C A25U G44C | 0.42 |
| C23U A24U C31U U34C | 0.03 |
| A16G A39C A41U | 0.15 |
| C10G A12U A41C C46A | 0.01 |
| A14U A25G U28C G35U | 0.03 |
| A4G C8G C15U G19U | 0.08 |
| A4U G5A A24G G44U | 0.12 |
| A12U A24U G27A G40U C45G | 0.04 |
| A4C G29U U43G | 0.04 |
| A12U U20A G27A G30U C31A C37U | 0.01 |
| U9C C10G A12C A14U A26G C42U | 0.01 |
| C8A A11C C13G A14C C18A G19A U28G G33C G36C | 0 |
| A4G C18A C23A A26C G44C | 0.01 |
| A4C G19C G21C G30C A39U | 0.13 |
| A24G U28C A39C A41G | 0.06 |
| A4U G5C A6U C13U | 0.12 |
| A6U C8A G27A G29U | 0.26 |

| Variant | self-cleavage |
| --- | --- |
| A4G G5U C13U | 0.06 |
| C8G C15A A16G C31U C37A | 0 |
| G19A C23G C42U G44A C46U | 0.01 |
| G7C C8G A25C G40A | 0.09 |
| U9C G21U G36A | 0.03 |
| C15A U20G U28C G33A | 0 |
| G5U G17A C31U | 0.05 |
| U9C C13A C18A U43A | 0.01 |
| C3A G7U A25G C42U G44U | 0.03 |
| A16C U20A C23A G35A | 0.07 |
| C18U G29A G35U C42A | 0.05 |
| A11G G21A C23A | 0.01 |
| C3A A6G C18U U34C A39C G44A | 0 |
| A24U U34C G36U U38C | 0.03 |
| G1U A26G G27C U43G C45U | 0.09 |
| G22C C23G U28G | 0.42 |
| A16G G21A G27A | 1.25 |
| C18A A25U C37U C45G | 0.01 |
| C18U U28A G40U | 0.83 |
| C15G U32C U38G | 0.07 |
| C15G A25C C45U | 0.05 |
| C3A A4C A16C C37U | 0.92 |
| C37G A39C G40C C45U | 0.05 |
| C13U G27C C42G | 0.38 |

| Variant | self-cleavage |
| --- | --- |
| A14U U20G C31U | 0.01 |
| A6U A12G C13U A41U | 0.04 |
| U9A C10A G33A | 0.06 |
| C10A C13U G21U C31U C37A | 0.02 |
| C10A A12C G29A C31U | 0.02 |
| G2U A4U C23U | 0.06 |
| G2C A16U C42A | 0.02 |
| G17U C31U G36A U38A A39C | 0.03 |
| G1U C3G A11G C42U | 0 |
| C13G G22U C37A | 0.45 |
| G1A G2A C10A A14U U38A A39C G44U | 0.49 |
| C15G C18G C23A G40C | 0.01 |
| A4C C8U C42U | 0.06 |
| A6C A12U C18U A24C U28A U32G U43C | 0.01 |
| G2U A12U A16G C23A G29C U32G | 0.01 |
| C3A U20G C37A C46G | 0.03 |
| G7U C8U U34G C45U | 0.21 |
| G2C A14C G17C A25U | 0.02 |
| G1C C8G A24C | 0.01 |
| G19A G30U G44A | 0.49 |
| C15U G29A C31U C42G | 0.01 |
| C15G C31G U34C G44C | 0.01 |
| G5C C10A C15A G27A | 0.02 |
| G2U C10A C23U A25C | 0.05 |

| Variant | self-cleavage |
| --- | --- |
| G7C A12G A14G | 0.16 |
| G30U A41G C46A | 0.21 |
| A4U A16C G21C G33C A39C G44C | 0.02 |
| A11G G35C C37U A39C | 0 |
| G7C A16U C23G A26U G30U C42G | 0.05 |
| G2U U28A C42U | 0 |
| U38G C42U C45A | 0.03 |
| G1U C15A U32C G35C | 0.01 |
| G35U G36U G40A | 0.04 |
| G5U C31U C46U | 0.05 |
| A4C C13A C45U | 0.24 |
| G5A C15U C23A | 0.05 |
| C3U U9A G40A | 0.18 |
| G2A G5U A6G | 0.35 |
| U20C G36C G44U | 0.01 |
| C8G G17C A25U | 0 |
| C15A C18A C37A U38G | 0.02 |
| A14C G19U A24U C45U | 0.03 |
| G1A C8G G40A | 0.05 |
| C8G A11C U34A C42G | 0 |
| A4G A6G C8U C45A | 0.17 |
| G22C G29A U34A C37A | 0.02 |
| G5A C13U A26G G40A G44A C45A | 0.06 |
| G2A C8G U20G U34G | 0.08 |

| Variant | self-cleavage |
| --- | --- |
| A4U G17C C42A | 0.01 |
| C8U G30U G35A | 0.42 |
| C8U U28G C37U | 0.09 |
| A4G C42U C45G | 0 |
| C13A A14C A16C | 0.07 |
| A16U C31G C42U U43A | 0.01 |
| A4G A6G G22A A25U G27C G29A U32G | 0.02 |
| G7A U9G G30U | 0.07 |
| C18A G40U C45A | 0.03 |
| C3A G29C U38G | 0.01 |
| A4G A6G C8A G19U G30U | 0.06 |
| G2C G5C A39C | 0.03 |
| G36U C42U G44A | 0.02 |
| G7C A11U G21C C23A | 0.03 |
| G27C C37G G44C | 0.04 |
| G7U C10U A12U A16G G19A U20A | 0.02 |
| G7C C8G G40U C42U | 0.1 |
| G1U C3U A39U A41G | 0.03 |
| A4U G17U G19A G21C U28G | 0.03 |
| C10G C15G A41U U43G C46A | 0.02 |
| A6G C8U G22A C23A C42U | 0.06 |
| G19A C31U U43A | 0.04 |
| G2U C3G G19A G22C A24U U32C C42U | 0.04 |
| G2C G21C A41C U43G | 0.04 |

| Variant | self-cleavage |
| --- | --- |
| G7C A14G U28C U43A C46U | 0.22 |
| G5C A11U G27A C42G C46A | 0.03 |
| A11G G21A C46G | 0.03 |
| G7U C15A G17U G19A U28A | 0.04 |
| C3G G7U G19C A41U C45G | 0.27 |
| A4C U34G C42G | 0.02 |
| G22A C31A A41U G44C | 0.04 |
| C13U A16C U20C U43C | 0.04 |
| C3A C10A A11U A12G C46A | 0.01 |
| C3A C13A G33C A39U C45A | 0.05 |
| G1A C18U U32A | 0.08 |
| G2U A14U C18G G36A | 0.03 |
| G1U C18A U32A | 0.08 |
| G33A G35A A39U G40U | 0.08 |
| G36U C37U G40C | 0.01 |
| C31U G44A C46A | 0.01 |
| A4C C15A G21U | 0.05 |
| G2C A6G G33C C46A | 0.03 |
| G19A G22C A41G | 0.29 |
| G7U C8A C13U U43A | 0.11 |
| C3A U20A C23A G29C | 0.09 |
| C8A G21C G27C A39U | 0.14 |
| G5C G30A G40A | 0.09 |
